Data published in PubChem BioAssay (Tox21).
This list was built around the results that the source calls inconclusive (neither active nor inactive); the mix of calls is not that of the screen. A call without a number means that no potency is given here. For some assays here: A potency beside an inconclusive call is a rough fit, not a confirmed value. Activity calls are given as the source filed them. Unless noted, the call rests on the fitted dose curve; in most records, active means well fitted curve in the direction sought with a large enough effect in the repeat runs; inconclusive means weak or mixed curves; inactive means no such curve, though single readings can be large; an effect the other way counts as inactive or inconclusive.

Tests used:
[1] = qHTS assay for identifying genotoxic compounds that show differential cytotoxicity against isogenic chicken DT40 cell lines with known DNA damage response pathways - Rad54/Ku70 mutant cell line (AID 743015); conditions: DT40 Rad54/Ku70 mutant viability, CellTiter-Glo, 40 h; activity change, negative = cytotoxicity: at 66.8 µM (top of the series) unless noted; further: nearly all actives have a fitted effect of over 60% in size; further: potency means the concentration at half of the fitted maximal effect
[2] = molecular target: Estrogen receptor (Homo sapiens) (UniProt P03372); assay: qHTS assay to identify small molecule antagonists of the estrogen receptor alpha (ER-alpha) signaling pathway (AID 743069; active means well fitted curve in the direction sought with a large enough effect in the signal ratio in the repeat runs, not every such curve was filed as active; inconclusive means weak or mixed curves, or effect the other way; inactive means no such curve, though single readings can be large or run the other way; the % refers to the signal ratio; further: potency means the concentration at half of the fitted maximal effect); conditions: HEK293 ER-alpha-UAS-bla, beta-lactamase ratio, antagonist mode; activity, negative = inhibition: at 69.4 µM (top of the series) unless noted
UniProt P03372, sequence (P03372 whole entry, looked up): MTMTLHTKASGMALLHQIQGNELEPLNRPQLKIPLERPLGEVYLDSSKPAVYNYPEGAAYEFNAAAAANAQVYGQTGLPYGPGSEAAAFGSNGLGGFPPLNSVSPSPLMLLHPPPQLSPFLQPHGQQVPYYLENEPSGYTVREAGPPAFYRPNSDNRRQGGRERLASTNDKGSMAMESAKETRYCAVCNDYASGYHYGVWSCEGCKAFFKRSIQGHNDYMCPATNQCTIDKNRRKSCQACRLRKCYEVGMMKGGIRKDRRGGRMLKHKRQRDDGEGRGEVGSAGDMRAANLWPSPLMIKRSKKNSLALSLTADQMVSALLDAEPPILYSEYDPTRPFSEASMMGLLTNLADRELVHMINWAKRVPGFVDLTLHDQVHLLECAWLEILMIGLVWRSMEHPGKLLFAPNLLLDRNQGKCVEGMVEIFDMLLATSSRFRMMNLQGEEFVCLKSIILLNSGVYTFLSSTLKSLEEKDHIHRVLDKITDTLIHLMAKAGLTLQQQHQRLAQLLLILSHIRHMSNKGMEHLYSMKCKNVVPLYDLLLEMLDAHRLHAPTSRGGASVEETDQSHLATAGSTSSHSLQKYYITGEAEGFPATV
Method in brief: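 Fluorescence intensity from a beta-lactamase FRET substrate served as the read-out. Cells: HEK293 with stably integrated ER-alpha-UAS-bla reporter. Agonist 17beta-estradiol was co-added with compounds; incubation 18 hr at 37C, substrate 2 hr at room temperature.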

[3] = molecular target: Nuclear receptor subfamily 1 group I member 3 (Homo sapiens) (UniProt Q14994); assay: qHTS assay to identify small molecule agonists of the constitutive androstane receptor (CAR) signaling pathway (AID 1224839); further: nearly all actives have a fitted effect of over 15% in size; further: potency means the concentration at half of the fitted maximal effect;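 on activation: HepG2 cells stably carrying human CAR and a CYP2B6 luciferase reporter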
UniProt Q14994, sequence (Q14994 whole entry, looked up): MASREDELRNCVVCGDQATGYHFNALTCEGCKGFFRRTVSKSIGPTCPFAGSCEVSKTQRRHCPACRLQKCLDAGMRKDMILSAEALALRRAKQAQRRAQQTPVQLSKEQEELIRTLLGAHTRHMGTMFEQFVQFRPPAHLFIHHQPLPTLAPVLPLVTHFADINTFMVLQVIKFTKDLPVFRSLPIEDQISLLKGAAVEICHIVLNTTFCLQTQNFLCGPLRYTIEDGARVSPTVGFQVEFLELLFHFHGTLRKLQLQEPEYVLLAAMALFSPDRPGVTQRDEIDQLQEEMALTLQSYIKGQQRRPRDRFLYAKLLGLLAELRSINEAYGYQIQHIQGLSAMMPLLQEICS
Method in brief: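 Cells were plated and incubated 4 hrs, then dosed with compounds at 15 concentrations. PK11195 was added to 0.75 uM final. After 24 hrs at 37 C, luciferase luminescence was measured.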

[4] = molecular target: Estrogen receptor beta (Homo sapiens) (UniProt Q92731); assay: qHTS assay to identify small molecule agonists of the estrogen receptor beta (ER-beta) signaling pathway (AID 1259377; active means well fitted activation curve with a large enough effect in the signal ratio in the repeat runs, not every such curve was filed as active; inconclusive means weak or mixed curves, or effect the other way; the % refers to the signal ratio; further: potency means the concentration at half of the fitted maximal effect); conditions: ER-beta-UAS-bla HEK293T, beta-lactamase FRET ratio, 16 h; activation: at 92.4 µM (top of the series) unless noted
UniProt Q92731, sequence (Q92731 whole entry, looked up, the tested form may be a part): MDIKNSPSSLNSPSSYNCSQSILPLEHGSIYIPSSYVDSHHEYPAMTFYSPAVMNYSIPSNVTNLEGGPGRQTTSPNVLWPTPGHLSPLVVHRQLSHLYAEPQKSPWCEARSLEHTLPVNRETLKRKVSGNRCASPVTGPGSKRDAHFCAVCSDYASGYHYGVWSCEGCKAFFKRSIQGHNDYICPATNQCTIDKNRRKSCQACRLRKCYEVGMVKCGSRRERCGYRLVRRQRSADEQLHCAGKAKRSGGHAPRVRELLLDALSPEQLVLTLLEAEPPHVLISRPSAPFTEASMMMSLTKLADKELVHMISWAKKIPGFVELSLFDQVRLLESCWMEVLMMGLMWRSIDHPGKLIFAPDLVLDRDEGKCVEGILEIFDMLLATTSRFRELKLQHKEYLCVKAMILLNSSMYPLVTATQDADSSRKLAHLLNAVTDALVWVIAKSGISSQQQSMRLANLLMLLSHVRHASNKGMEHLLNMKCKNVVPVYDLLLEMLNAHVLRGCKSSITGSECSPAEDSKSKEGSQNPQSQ
Method in brief: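 Agonist mode cell assay in GripTite HEK293T cells expressing an ER-beta fusion that drives beta-lactamase from an Upstream Activator Sequence; 16 hr compound exposure at 37C, then 2 h LiveBLAzer B/G FRET substrate at room temperature, fluorescence read-out.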

[5] = qHTS assay to identify small molecule agonists of the estrogen receptor beta (ER-beta) signaling pathway - cell viability counter screen (AID 1259380); further: nearly all actives have a fitted effect of over 30% in size; further: potency means the concentration at half of the fitted maximal effect
Method in brief: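 Cytotoxicity is measured in parallel with the reporter screen: after 16 hr compound exposure at 37C and a 2 hr LiveBLAzer step, CellTiter-Glo is added to the same ER-beta-UAS-bla HEK293T wells and luminescence read after 30 min.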

[6] = qHTS assay to identify small molecule antagonists of the peroxisome proliferator-activated receptor delta (PPARd) signaling pathway - cell viability counter screen (AID 743213); conditions: PPARd-bla HEK293H viability, CellTiter-Glo luminescence, 17 h; viability change, negative = cytotoxic: at 62 µM (top of the series) unless noted; further: nearly all actives have a fitted effect of over 50% in size; further: potency means the concentration at half of the fitted maximal effect
Method in brief: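 In this counter screen, HEK293H cells carrying a UAS-beta-lactamase reporter are co-treated with test compounds and 300 nM L165041 (final) for 17 h at 37 C; cell viability is quantified by CellTiter-Glo luminescence.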

[7] = qHTS assay to identify small molecule agonists of H2AX - cell viability counter screen (AID 1224847; calls by dose curve; further: nearly all actives have a fitted effect of over 30% in size; further: potency means the concentration at half of the fitted maximal effect; on activity change, negative = cytotoxicity: top concentration of the series differs between compounds)
Method in brief: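 Cytotoxicity counter screen in wild-type CHO-K1 cells: a 3 hr compound treatment at 37C across 15 concentrations, followed by CellTiter-Glo luminescence to gauge viable cells.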

[8] = qHTS RealTime-Glo MT Cell Viability Assay in HEK293 cells - 8 hour (AID 1224887); further: top concentration of the series differs between compounds; nearly all actives have a fitted effect of over 50% in size
Method in brief: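 Real-time viability in HEK293: signal arises when living cells convert a prosubstrate for NanoLuc in the medium, so luminescence tracks viable cell number. Compound (23 nL, DMSO) added 5 h post-seeding; kinetic reads at 0–40 h, 37 C.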

[9] = molecular target: Peroxisome proliferator-activated receptor delta (Homo sapiens) (UniProt Q03181); assay: qHTS assay to identify small molecule agonists of the peroxisome proliferator-activated receptor delta (PPARd) signaling pathway (AID 743212; calls by dose curve;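 further: HEK293H cells with PPARd UAS beta-lactamase reporter GeneBLAzer system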); conditions: HEK293H PPARd-UAS-bla, beta-lactamase FRET ratio, 17 h; activation: at 62.6 µM (top of the series) unless noted
UniProt Q03181, sequence (Q03181 whole entry, looked up): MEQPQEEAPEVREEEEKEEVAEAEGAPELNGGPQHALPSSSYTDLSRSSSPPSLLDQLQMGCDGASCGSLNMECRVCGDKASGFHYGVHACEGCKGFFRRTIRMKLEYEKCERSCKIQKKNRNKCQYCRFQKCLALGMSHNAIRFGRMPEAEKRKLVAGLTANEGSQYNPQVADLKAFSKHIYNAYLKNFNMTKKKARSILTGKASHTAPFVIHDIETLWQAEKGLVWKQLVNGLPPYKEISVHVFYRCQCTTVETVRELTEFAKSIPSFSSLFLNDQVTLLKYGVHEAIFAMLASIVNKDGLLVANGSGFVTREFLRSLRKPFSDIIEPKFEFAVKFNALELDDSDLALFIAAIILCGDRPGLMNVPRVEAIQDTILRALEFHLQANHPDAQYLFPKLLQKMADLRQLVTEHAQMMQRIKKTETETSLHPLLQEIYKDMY
Method in brief: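 Steps: seed PPARd-bla HEK293H cells; incubate 5 h, 37 C, 5% CO2; add compounds in DMSO; incubate, 37 C; add LiveBLAzer B/G FRET substrate; hold 2 h at room temperature; measure fluorescence.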

[10] = qHTS RealTime-Glo MT Cell Viability Assay in HEK293 cells - 32 hour (AID 1224868); further: top concentration of the series differs between compounds; nearly all actives have a fitted effect of over 50% in size
Method in brief: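 Luminescence generated by NanoLuc from substrate produced by living HEK293 cells served as the viability signal. Each value reflects the reading at its stated time point during continuous 40 h compound exposure at 37 C.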

[11] = qHTS assay to identify small molecule antagonists of the sonic hedgehog signaling (Shh) pathway (AID 1259369; calls by dose curve; further: nearly all actives have a fitted effect of over 45% in size; further: potency means the concentration at half of the fitted maximal effect)
Method in brief: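 Cells are plated and held 4hr at 37 C, compounds (DMSO) are pinned in, conditioned medium is added to stimulate the pathway, and after 24hr luciferase reagent is added for 30min before luminescence is read.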

[12] = Human pregnane X receptor (PXR) small molecule agonists, qHTS cell viability counter screen (AID 1346977); further: nearly all actives have a fitted effect of over 50% in size; further: potency means the concentration at half of the fitted maximal effect
Method in brief: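 Cytotoxicity counter screen run in the same wells as the PXR luciferase assay, using PXR-Luc HepG2 cells in charcoal-stripped serum medium. Viability: CellTiter-Fluor fluorescence after 24hr compound treatment.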

[13] = molecular target: Cytochrome P450 2D6 (Homo sapiens) (UniProt P10635); assay: Cytochrome P450 Family 2 Subfamily D Member 6 (CYP2D6) small molecule antagonists: luciferase reporter qHTS assay (AID 1671196); further: nearly all actives have a fitted effect of over 50% in size; further: potency means the concentration at half of the fitted maximal effect
UniProt P10635, sequence (P10635 whole entry, looked up): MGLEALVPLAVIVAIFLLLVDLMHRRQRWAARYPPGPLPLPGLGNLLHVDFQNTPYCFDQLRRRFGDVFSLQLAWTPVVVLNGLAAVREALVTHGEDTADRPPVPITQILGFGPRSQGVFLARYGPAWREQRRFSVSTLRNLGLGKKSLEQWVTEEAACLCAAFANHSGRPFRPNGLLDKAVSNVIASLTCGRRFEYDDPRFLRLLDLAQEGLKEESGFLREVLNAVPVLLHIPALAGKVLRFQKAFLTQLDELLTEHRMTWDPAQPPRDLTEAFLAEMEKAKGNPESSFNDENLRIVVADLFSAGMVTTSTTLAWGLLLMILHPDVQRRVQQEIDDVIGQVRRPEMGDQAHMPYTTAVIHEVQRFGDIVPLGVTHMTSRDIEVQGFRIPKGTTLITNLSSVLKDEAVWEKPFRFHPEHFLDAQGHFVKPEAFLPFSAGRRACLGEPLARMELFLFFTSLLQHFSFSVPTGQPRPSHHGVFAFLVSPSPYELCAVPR
Method in brief: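 Enzyme and proluciferin substrate were first combined with test chemical for 10 min at room temperature. Adding NADPH regeneration solution started a 1 h reaction, stopped with luciferin detection reagent and read by luminescence 20 min later.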

[14] = qHTS assay to identify small molecule antagonists of the progesterone receptor (PR) signaling pathway - cell viability counter screen (AID 1346798); further: nearly all actives have a fitted effect of over 50% in size; further: potency means the concentration at half of the fitted maximal effect
Method in brief: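 Counter screen for cytotoxicity: viability of PR-UAS-bla HEK293T cells was measured with CellTiter-Glo luminescence following 16 hr compound exposure in the presence of R5020.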

[15] = qHTS assay to identify small molecule antagonists of the estrogen receptor alpha (ER-alpha) signaling pathway - cell viability counter screen (AID 743074; calls by dose curve; further: nearly all actives have a fitted effect of over 45% in size; further: potency means the concentration at half of the fitted maximal effect)
[16] = qHTS assay to identify small molecule agonists of H2AX (AID 1224845; active means well fitted activation curve with a large enough effect in the signal ratio in the repeat runs, not every such curve was filed as active; inconclusive means weak or mixed curves; the % refers to the signal ratio; further: potency means the concentration at half of the fitted maximal effect); conditions: CHO-K1 phospho-H2AX Ser139 HTRF, 3 h; activation (H2AX phosphorylation): at 154 µM (top of the series) unless noted
Method in brief: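 Phospho-H2AX Ser139 measured by HTRF (ex 320 nm; em 665 and 620 nm) after 24 hr antibody incubation. Compounds, 15 concentrations, 0.76% DMSO, were applied to CHO-K1 cells for 3hr at 37C before lysis.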

[17] = molecular target: Vitamin D3 receptor (Homo sapiens) (UniProt P11473); assay: qHTS assay to identify small molecule agonists of the vitamin D receptor (VDR) signaling pathway (AID 743222; calls by dose curve; further: potency means the concentration at half of the fitted maximal effect); conditions: HEK293T VDR-UAS-bla, beta-lactamase FRET ratio, 16 h; activation: at 63.5 µM (top of the series) unless noted
UniProt P11473, sequence (P11473 whole entry, looked up): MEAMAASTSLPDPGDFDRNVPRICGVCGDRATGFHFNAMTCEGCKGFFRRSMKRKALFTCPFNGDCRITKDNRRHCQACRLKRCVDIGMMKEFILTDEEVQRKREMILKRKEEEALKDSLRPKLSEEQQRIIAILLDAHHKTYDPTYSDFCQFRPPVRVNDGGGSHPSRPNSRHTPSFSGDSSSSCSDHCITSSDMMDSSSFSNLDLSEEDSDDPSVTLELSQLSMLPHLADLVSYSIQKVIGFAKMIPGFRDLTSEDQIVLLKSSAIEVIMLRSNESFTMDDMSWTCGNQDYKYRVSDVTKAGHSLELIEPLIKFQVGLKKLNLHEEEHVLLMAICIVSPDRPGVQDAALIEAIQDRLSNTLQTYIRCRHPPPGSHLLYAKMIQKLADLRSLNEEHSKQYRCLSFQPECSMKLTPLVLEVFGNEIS
Method in brief: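 Cells carrying a VDR-driven beta-lactamase reporter are seeded at 2,000 per well and rested 4 h. Compounds in DMSO are added for 16 h at 37C, and FRET substrate fluorescence is measured after 2 h at room temperature.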

[18] = qHTS assay to identify small molecule agonists of the constitutive androstane receptor (CAR) signaling pathway - cell viability counter screen (AID 1224836); further: nearly all actives have a fitted effect of over 45% in size
Method in brief: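 Cells were seeded and incubated 4 hrs. Compounds were added across 15 concentrations together with PK11195 at 0.75 uM final. Plates were incubated 23 hrs at 37 C. CellTiter-Fluor was added and fluorescence measured.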

[19] = qHTS assay to identify small molecule antagonists of the estrogen related receptor signaling pathway with the pleiotropic PPARgamma coactivator (PGC) from Tox21 10K library (AID 1224841; call rule not given here; further: potency means the concentration at half of the fitted maximal effect)
Method in brief: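 Steps: plate 2,000 PGC/ERR cells per well; incubate 6 h at 37 C with 5% CO2; transfer compounds from DMSO stocks by pin tool; incubate 18 h at 37 C; add One-Glo; measure luminescence 30 min later.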
Tags describe the fitted curve by direction and shape or compound fluorescence and quenching.

In the case of `CC(C)(C)c1ccc(S)cc1`, the Potency [1] is reported as inconclusive: 68.6 µM [cytotoxic, single point], the Potency [2] is reported as inconclusive: 43.6 µM [partial curve] and the Potency [3] is reported as inconclusive: 68.6 µM [activator]. For the same compound, the Potency [4] was “inactive” and the Potency [5] was inconclusive: 68.6 µM [cytotoxic, partial curve, poor fit].

For `Cc1scc2c1N(C(=O)CN1CCN(C)CC1)c1ccccc1NC2=O`, the Potency [6] was “inactive”, the Potency [7] was “inactive” and the Potency [8] was “inactive”.

In the case of `CC1=CC(=O)[C@H]2C[C@@H]1C2(C)C`, the Potency [1] is reported as “inactive”, the Potency [2] is reported as “inactive” and the Potency [6] is reported as “inactive”.

With `CS(=O)(=O)O` the Potency [6] was inconclusive: 1.1 µM [cytotoxic, single point] and the Potency [3] was “inactive”.

In the case of `C=CN1CCCCCC1=O`, the Potency [9] is reported as “inactive”, the Potency [10] is reported as “inactive” and the Potency [11] is reported as “inactive”. For the same compound, the Potency [12] was “inactive” and the Potency [13] was “inactive”.

For `O=C(c1ccccc1)c1cccc(O)c1`, the Potency [2] was inconclusive: 35.2 µM [fluorescent, partial curve, poor fit], the Potency [3] was inconclusive: 55.3 µM [activator, partial curve] and the Potency [7] was inconclusive: 129 µM [cytotoxic, single point]. For the same compound, the Potency [11] was inconclusive: 55.3 µM [inhibitor], the Potency [4] was active: 12.4 µM and the Potency [14] was inconclusive: 69.6 µM [rising, single point].

In the case of `C=COC(=O)C(C)(CC)CCC(C)C` (centres undefined), the Potency [15] is reported as inconclusive: 19.5 µM [rising, single point], the Potency [4] is reported as “inactive” and the Potency [13] is reported as inconclusive: 39.9 µM [inhibitor, partial curve].

With `O=Cc1ccccc1[N+](=O)[O-]` the Potency [1] was inconclusive: 68.6 µM [cytotoxic, single point] and the Potency [3] was inconclusive: 61.1 µM [activator, single point].

In the case of `O=C(O)c1c(Cl)ccc(Cl)c1Cl`, the Potency [3] is reported as inconclusive: 68.6 µM [activator, partial curve, poor fit].

In the case of `CCCCCCC(=O)O`, the Potency [1] is reported as “inactive”, the Potency [4] is reported as “inactive” and the Potency [12] is reported as inconclusive: 68.6 µM [rising, partial curve, poor fit].

With `CC1=NN(c2cccc(S(=O)(=O)O)c2)C(=O)C1` the Potency [15] was “inactive”, the Potency [3] was “inactive” and the Potency [16] was inconclusive: 56.6 µM [falling, partial curve]. The Potency [14] was inconclusive: 27.3 µM [cytotoxic, partial curve, poor fit] and the Potency [12] was “inactive”.

For `CC(C)=CCC/C(C)=C/C=O`, the Potency [1] was inconclusive: 68.6 µM [cytotoxic, single point], the Potency [15] was inconclusive: 56 µM [rising, single point] and the Potency [17] was inconclusive: 15.5 µM [rising, partial curve, poor fit]. For the same compound, the Potency [3] was “inactive” and the Potency [11] was “inactive”.

For `CCCCCCC(O)CO` (centres undefined), the activation [9] was inconclusive: 9.66%, the activation [4] was inconclusive: 6% and the Potency [5] was “inactive”. The Potency [14] was “inactive”.

With `CCC[C@@H]1C[C@@H](C(=O)N[C@@H]([C@H]2O[C@H](SC)[C@H](O)[C@@H](O)[C@H]2O)[C@@H](C)O)N(C)C1` the Potency [3] was “inactive” and the Potency [5] was “inactive”.

In the case of `CC(=O)Nc1ccc(/C=N/NC(N)=S)cc1`, the Potency [15] is reported as “inactive” and the Potency [16] is reported as inconclusive: 61.9 µM [falling, partial curve, poor fit].

With `CCCCCCCCCCCCCCCCCCOCCO` the Potency [6] was inconclusive: 0.0174 µM [cytotoxic, full curve, poor fit], the viability change, negative = cytotoxic [18] was inactive: -7.83% [at 19 µM] and the Potency [14] was inconclusive: 6.88 µM [rising, partial curve].

For `N#Cc1ccc(C(c2ccc(C#N)cc2)n2cncn2)cc1`, the Potency [1] was “inactive”, the Potency [9] was “inactive” and the Potency [7] was “inactive”. The Potency [11] was “inactive” and the Potency [5] was “inactive”.

In the case of `CNC(=O)c1c(I)c(NC(=O)CCCCC(=O)Nc2c(I)c(C(=O)O)c(I)c(C(=O)NC)c2I)c(I)c(C(=O)O)c1I`, the Potency [5] is reported as “inactive”.

With `O=C1OC(=O)C2CC=CCC12` (centres undefined) the Potency [7] was “inactive” and the Potency [13] was active: 35.7 µM.

In the case of `CCCCCCCCCCCCCC=O`, the activity change, negative = cytotoxicity [8] is reported as inactive: 2.94% [at 6.97 µM].

For `CCCC=O`, the Potency [9] was “inactive”, the Potency [6] was inconclusive: 24 µM [cytotoxic, full curve, poor fit] and the Potency [19] was inconclusive: 23.8 µM [falling, single point]. For the same compound, the Potency [5] was “inactive”.

For `Cc1ccccc1CCO`, the Potency [7] was inconclusive: 2.01 µM [cytotoxic, single point] and the Potency [14] was “inactive”.

With `CCCCCCCOC(C)=O` the Potency [10] was “inactive” and the Potency [11] was “inactive”.

In the case of `CCCCCCCC(=O)N(C)C`, the Potency [19] is reported as “inactive” and the Potency [16] is reported as “inactive”.

In the case of `CCOC(=O)C1=NOC(c2ccccc2)(c2ccccc2)C1`, the Potency [11] is reported as inconclusive: 6.86 µM [inhibitor, single point].
